The campaign covered roughly 310,000 compounds. About 14,000 (4.5%) showed an effect of 50% or more. Effects have a minus sign here. This is one part of the list.
molecular target: human ether-à-go-go-related gene (hERG) potassium channel (human, UniProt Q12809); experiment: primary screen, population patch clamp on CHO cells stably expressing hERG
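Also: peak tail current of the secondary pulse compared with the same well before compound.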

Sequence of human ether-à-go-go-related gene (hERG) potassium channel (Q12809 whole entry, looked up): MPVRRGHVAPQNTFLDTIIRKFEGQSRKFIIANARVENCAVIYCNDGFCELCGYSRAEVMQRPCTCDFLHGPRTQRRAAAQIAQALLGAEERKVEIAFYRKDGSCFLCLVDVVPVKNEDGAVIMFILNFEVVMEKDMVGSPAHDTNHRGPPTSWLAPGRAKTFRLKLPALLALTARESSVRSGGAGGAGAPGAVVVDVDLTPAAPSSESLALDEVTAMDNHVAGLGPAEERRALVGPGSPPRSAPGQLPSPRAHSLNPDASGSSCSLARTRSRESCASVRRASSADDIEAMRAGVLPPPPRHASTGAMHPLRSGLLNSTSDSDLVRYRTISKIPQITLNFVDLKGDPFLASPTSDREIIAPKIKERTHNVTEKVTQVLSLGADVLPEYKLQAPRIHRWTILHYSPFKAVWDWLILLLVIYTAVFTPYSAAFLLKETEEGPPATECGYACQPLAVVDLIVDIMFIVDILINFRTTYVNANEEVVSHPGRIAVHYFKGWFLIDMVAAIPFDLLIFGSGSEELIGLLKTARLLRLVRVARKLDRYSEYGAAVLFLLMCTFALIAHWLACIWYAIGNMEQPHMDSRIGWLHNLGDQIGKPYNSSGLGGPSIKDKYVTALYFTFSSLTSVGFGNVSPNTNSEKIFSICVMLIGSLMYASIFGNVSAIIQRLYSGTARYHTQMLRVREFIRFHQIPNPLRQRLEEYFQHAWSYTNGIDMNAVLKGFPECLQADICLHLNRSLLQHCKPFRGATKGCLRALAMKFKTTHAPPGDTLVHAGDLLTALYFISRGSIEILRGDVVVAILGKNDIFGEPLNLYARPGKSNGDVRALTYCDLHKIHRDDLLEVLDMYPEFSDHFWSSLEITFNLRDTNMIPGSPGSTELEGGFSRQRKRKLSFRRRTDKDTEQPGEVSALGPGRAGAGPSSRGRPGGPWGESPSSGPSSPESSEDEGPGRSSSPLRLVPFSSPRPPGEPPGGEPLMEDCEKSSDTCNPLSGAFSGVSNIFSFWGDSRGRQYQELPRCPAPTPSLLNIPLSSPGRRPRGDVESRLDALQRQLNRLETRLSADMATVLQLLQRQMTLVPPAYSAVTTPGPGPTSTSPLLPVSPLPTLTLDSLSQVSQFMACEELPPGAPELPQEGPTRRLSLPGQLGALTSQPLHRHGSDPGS

| SMILES | hERG current change (%, negative = inhibition) at 10uM |
| --- | --- |
| CCc1cc2c(SCC(=O)N(CC)c3c(N)n(Cc4ccccc4)c(=O)[nH]c3=O)ncnc2s1 | 8.96% |
| CCCOc1ccc(C(=O)NC(=S)Nc2nc3ccccc3s2)cc1 | 8.53% |
| Cn1c(=O)cc(OCCCC(=O)N2CCCCC2)c2ccccc21 | 3.44% |
| COc1ccc(OCC(=O)NCCNC(=O)c2ccccn2)cc1 | 11.6% |
| CC(C)(CO)CNC(=O)CCc1nnc(-c2ccc(-c3ccccc3)cc2)o1 | 10.9% |
| CNC(=S)N/N=C/c1c(C(=O)OC)cnn1-c1ccc(F)cc1F | 6.3% |
| Cc1nn(C(C)(C)C)c(NC(=O)c2ccccc2)c1C#N | 14.7% |
| COc1ccc(N2CCN(C(=S)Nc3cc(C)ccc3C)CC2)cc1 | 11.6% |
| O=S(=O)(c1ccccc1)C(/C=N\O)/C=C/c1ccccc1 (stereo not drawn) | 4.57% |
| CCOC(=O)Cn1c(=O)c2c(nc3n2CCCN3Cc2ccccc2)n(C)c1=O | -44.9% |
| O=C(N/N=C/C=C/c1ccc([N+](=O)[O-])cc1)c1cccs1 | -13% |
| Cc1nc2sccn2c(=O)c1S(=O)(=O)NCc1ccccc1Cl | -13.5% |
| O=[N+]([O-])c1ccc(S(=O)(=O)NCCN2CCOCC2)cc1 | 11.2% |
| COc1ccc(-n2cc(CNC3CCOCC3)c(-c3cccc(F)c3)n2)cc1 | -48.2% |
| N#Cc1ccc(NC(=O)c2sc3cc(C(F)(F)F)cnc3c2-c2cccs2)cc1 | -17.4% |
| O=C(N/N=C/c1ccc(N2CCOCC2)cc1)c1ccccc1OCCOc1ccccc1 | -28.9% |
| COc1ccc(-c2[nH]c3ccccc3c2SCCNC(=O)c2ccccc2)cc1 | 2.71% |
| CN1CCN(C(CNC(=O)Nc2ccc(Cl)cc2)c2ccc(F)cc2)CC1 (stereo not drawn) | -56.3% |
| COCCNC(=O)c1c[nH]c2ccc(S(=O)(=O)Nc3ccccc3F)cc2c1=O | 24.3% |

| SMILES | hERG current change (%, negative = inhibition) at 10uM |
| --- | --- |
| N#Cc1cc(C(=O)Cc2ccccc2)c[nH]1 | 12.9% |
| COc1ccc(NC(=O)COC(=O)CCOc2ccccc2C)cc1Cl | -14.4% |
| Nc1nnc(SCC(=O)c2ccc3c(c2)NC(=O)CO3)s1 | 23.4% |
| CCN(CC(=O)Nc1ccccc1SC)Cc1nc2ccccc2c(=O)[nH]1 | -23.9% |
| CCCC(=O)Nc1ccc2c(c1)nc(CCNC(=O)c1ccco1)n2C | 7.48% |
| CS(=O)(=O)Nc1nc2n(n1)C(c1ccc(F)cc1)CC(c1ccccc1)N2 (stereo not drawn) | -4.13% |
| CCC(C)c1ccc(Nc2ncccc2C#N)cc1 (stereo not drawn) | -6.52% |
| Cc1cccn2c(=O)c3cc(C(=O)NC4CCS(=O)(=O)C4)sc3nc12 (stereo not drawn) | 5.89% |
| CCN1C(=O)/C(=C\N2CCOCC2)SC1=S | 5.62% |
| COC(=O)c1sc(NC(=O)c2ccncc2)nc1C | 25.5% |
| O=C(Nc1cc(C(F)(F)F)ccc1-n1cncn1)c1ccc(-c2ccccc2)cc1 | 7.64% |
| Cc1cc(C)n2nc(SCc3nnc(SCCCCl)o3)nc2n1 | 2.31% |
| COc1ccc(S(=O)(=O)N(C)CC(=O)NCCN2CCOCC2)cc1 | 14.7% |
| COc1ccc(C2CC(c3ccccc3)=NN2C(=O)COC(=O)c2cccc(S(=O)(=O)N(C)C)c2)cc1 (stereo not drawn) | -11% |
| CNC(=O)c1[nH]cnc1C(=O)NCC(=O)OCc1ccccc1 | 13.9% |
| CC(C)(C)c1ccc(CN(Cc2ccccc2)C(c2ccccn2)c2nnnn2C(C)(C)C)cc1 (stereo not drawn) | 2.44% |
| CC(C)(C)C1=NN=C2c3ccccc3C(=O)C21 (stereo not drawn) | 14.8% |
| Cc1ccc(OCC(=O)Nc2cc(NC(=O)COc3ccc(C)c(C)c3)cc(C(=O)O)c2)cc1C | 21.2% |
| CSC1=C(C#N)C(=O)NC(c2ccc(Cl)cc2)S1 (stereo not drawn) | 4.35% |

| SMILES | hERG current change (%, negative = inhibition) at 10uM |
| --- | --- |
| O=C(CSc1nnc(NC(=O)C2CCC2)s1)Nc1ccccc1Br | -18% |
| CCOc1ccc(S(=O)(=O)NCCCN2CCCC2=O)cc1 | 13.1% |
| COCCN(CCOC)S(=O)(=O)c1ccc(C(=O)Nc2nc(-c3ccncc3)cs2)cc1 | -5.97% |
| O=C(CCl)NCCNC(=O)c1cc(OCC(F)(F)F)ccc1OCC(F)(F)F | -4.65% |
| CCOC(=O)C(NC(=O)CC)(Nc1ccc(S(=O)(=O)Nc2onc(C)c2C)cc1)C(F)(F)F (stereo not drawn) | 7.89% |
| CCc1cc(CC)c(/C=N/NC(N)=O)c(CC)c1/C=N/NC(N)=O | 9.25% |
| CCOc1ccc(/C=C2/SC(=S)N(n3c(C)ccc3C)C2=O)cc1 | 8.78% |
| CC(NC(=O)Nc1nnc(C(F)(F)F)s1)(C(F)(F)F)C(F)(F)F | -7.61% |
| S=c1[nH]c2cc(Br)cnc2[nH]1 | 26.7% |
| COc1ccc(Nc2ncc(C(=O)N3CCN(c4ccccc4OC)CC3)c3ccccc23)cc1 | -4.57% |
| COc1ccc2ccc(OCC(=O)Nc3cc(C)on3)cc2c1 | 4.4% |
| CCOCc1[nH]c(=S)[nH]c(=O)c1Cc1ccc(OC(C)C)cc1 | -58.8% |
| O=C(O)c1nn(-c2cccc(C(F)(F)F)c2)ccc1=O | 21.5% |
| O=C(c1ccc(Cl)s1)N1CCOCC1 | 13.4% |
| CC(C)CN1CCN(Cc2cccc3nccnc23)CC1CCO (stereo not drawn) | -8.4% |
| C=CCn1c(SCCCc2ccccc2)nc2c1c(=O)[nH]c(=O)n2C | -26.1% |
| Br.O=C(CN1CCSC1=NCc1ccccc1)c1ccccc1 | -23.5% |
| Cc1ccc2nc(SCC(=O)NCCc3ccccc3)nc(=O)n2c1 | 8.42% |
| CCCn1nc(C(=O)NNC(=O)CSC(C)C(=O)Nc2cc(C)on2)c2ccccc2c1=O (stereo not drawn) | -2.53% |

Source: paper PMC4336329 (PLoS ONE, 2015)
